PubChem BioAssay AID686979 (National Center for Advancing Translational Sciences (NCATS), 2013)
Where “and” joins values, the source holds several entries; their conditions need not be identical. Equal values may be shown once. Screen size: about 420,000 compounds; about 50,000 (12%) were called active. The inconclusive results got no clear call from the source; some entries with a clear call stand among them for comparison. The call rests on the fitted dose curve; in most records, active means well fitted inhibition curve with a large enough effect; inconclusive means small, poorly fitted or top-dose-only effect; inactive means flat fitted curve, though single readings scatter. Potencies of inconclusive entries are doubtful fits and often do not repeat.

Assay: qHTS for Inhibitors of human tyrosyl-DNA phosphodiesterase 1 (TDP1): qHTS in cells in presence of CPT; further: nearly all actives have a fitted effect of over 55% in size
Settings: chicken DT40 Tdp1-/-;hTDP1 cells + 20 nM CPT, ATP luminescence, 48 h; activity change, negative = growth inhibition: at 46.2 µM (top of the series)
Summary of the method: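 Cell growth measured by CellTiter-Glo luminescence after a minimum 48 h, 37 C compound exposure with 20 nM CPT in Tdp1-knockout DT40 cells stably expressing hTDP1, seeded 400/well; qHTS titration format.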
On the % scale 0 is the no-effect control and ±100 the full control effect; potency means the concentration at half of the fitted maximal effect; tags describe the fitted curve by direction and shape.

Compound | Potency | activity change, negative = growth inhibition
CCC(C)n1c(SCC(=O)NCCc2ccc(S(N)(=O)=O)cc2)nc2ccsc2c1=O (stereo not drawn) | inconclusive: 14.6 µM [inhibitor, partial curve] | 
COc1cccc(NC(=O)Cn2c(=O)n(Cc3ccccc3)c(=O)c3c2c2cc(C)ccc2n3C)c1 | inconclusive: 6.51 µM [inhibitor, full curve] | 
Oc1ccc(O)c(-c2cnns2)c1 | active: 14.6 µM | 
CC(O)(c1cccc(F)c1)c1nc(-c2ccc(S(C)(=O)=O)cc2)cs1 (stereo not drawn) | active: 16.4 µM | 
Cc1cc(C)c2oc(-c3cc(NC(=O)Cc4ccccc4)ccc3Cl)nc2c1 | inconclusive: 32.6 µM [inhibitor, single point] | 
S=C(NC1CCCCC1)N1CCOCCOCCN(C(=S)NC2CCCCC2)CCOCCOCC1 | inconclusive: 23.1 µM [inhibitor, single point] | 
N#Cc1c(N)n[nH]c1-c1cc2c([nH]1)CCCC2 | inconclusive: 32.6 µM [inhibitor, single point] | 
CC1(C(=O)NCc2ccccn2)CCN1C(=O)Cc1ccc(Cl)cc1Cl (stereo not drawn) |  | inactive: -10.6%
CCN(CC(=O)NCc1ccc(F)cc1)C(=O)C1CCN(S(=O)(=O)c2ccc(C(C)C)cc2)CC1 | inconclusive: 14.6 µM [inhibitor, single point] | 
CC(Oc1ccc(Cl)cc1Cl)C(=O)NCCC1=CCCCC1 (stereo not drawn) | inconclusive: 29.1 µM [inhibitor, single point] | 
OCCC1CN(Cc2ccc(Oc3ncccn3)cc2)CCN1Cc1ccc(F)c(F)c1 (stereo not drawn) |  | inactive: -6.25%
CCCN1CCc2nc(SCC(=O)Nc3ccc(C)c(Cl)c3)[nH]c(=O)c2C1 | inactive and inconclusive: 29.1 µM [inhibitor, single point] | 
COc1ccc(NS(=O)(=O)c2cccc(C(=O)NNC(=O)c3ccc(=O)[nH]c3)c2)cc1 |  | inactive: 21.7%
Cc1cc(C)c(S(=O)(=O)c2ccccc2C(C)C)c(=O)[nH]1 |  | inactive: 0.872%
Cc1ccc(C(=O)Nc2cccnc2)cc1[N+](=O)[O-] |  | inactive: -13.8%
CC(NC(=O)CSc1nnc(-c2cc3cc(Cl)ccc3o2)n1C)c1ccccc1 (stereo not drawn) | inconclusive: 29.1 µM [inhibitor, single point] | 
COCCn1c(SCC(=O)Nc2cccc(OC)c2)nnc1-c1ccc(Cl)cc1 | inconclusive: 23.1 µM [inhibitor, single point] | 
O=C(CN1CC(=O)Oc2ccccc21)OCC(=O)c1ccc(Br)cc1 | active: 20.6 µM | 
CCN(CC)S(=O)(=O)c1ccc2oc(C(=O)NCCCN3CCOCC3)c(C)c2c1 |  | inactive: 1.35%
CN1CCN(c2ccc(NC(=S)NC(=O)c3cccc4ccccc34)cc2)CC1 | active: 23.1 µM | 
CC(=O)c1ccccc1NS(=O)(=O)c1c(C)nn(-c2ccccc2)c1C | inconclusive: 20.6 µM [inhibitor, partial curve] | 
Cc1cc(N2CCCC(C(=O)Nc3cccc4ccccc34)C2)n2ncnc2n1 (stereo not drawn) | inconclusive: 16.4 µM [inhibitor, single point] | 

Compound | Potency | activity change, negative = growth inhibition
Cc1ccc2c(c1)C(=O)N1[C@H]3c4ccccc4OC[C@@H]3[C@H](c3ccccc3)[C@]1(C)C(=O)N2 | inconclusive: 29.1 µM [inhibitor, single point] | 
CCOc1ccc(C(=O)N2CCC(c3nc(-c4ccc(S(=O)(=O)N5CCCC5)cc4)no3)CC2)cc1 | active: 20.6 µM | 
Cc1cc(C)c(S(=O)(=O)NCC2CCC(C(=O)NCc3ccc4c(c3)OCO4)CC2)c(C)c1 (stereo not drawn) | inconclusive: 29.1 µM [inhibitor, single point] | 
O=C(O)CN1C(=O)C(=O)N(Cc2ccc(Cl)cc2Cl)C1=O |  | inactive: 9.45%
COc1ccc(Oc2nc3ccccc3n(C)c2=O)cc1 | inconclusive: 32.6 µM [inhibitor, partial curve] | 
COc1ccc(C(c2c(NC(=O)c3ccco3)sc(C)c2C)N2CCOCC2)cc1 (stereo not drawn) | inconclusive: 16.4 µM [inhibitor, single point] | 
Cc1cc(C)c(S(=O)(=O)N2CCN(S(=O)(=O)N3CCCCCC3)CC2)c(C)c1 |  | inconclusive: -35.5% [inhibitor]
O=C(O)CNc1ccccc1C(=O)O |  | inactive: 2.53%
Cc1cc2c(cc(C(=O)OC(C(=O)NCC3CCCO3)C(C)C)n2C)o1 (stereo not drawn) | inconclusive: 14.6 µM [inhibitor, single point] | 
COc1ccc(C(O)c2ncc(-c3ccc(Cl)cc3)[nH]2)cc1 (stereo not drawn) | inconclusive: 29.1 µM [inhibitor, single point] | 
Cc1cc(C)cc(NC(=O)C(c2ccccc2)N2CCCC2)c1 (stereo not drawn) | active: 3.66 µM | 
COCCN(C(=O)c1ccc(N(C)S(=O)(=O)c2ccc(C)cc2)cc1)c1c(N)n(CC(C)C)c(=O)[nH]c1=O |  | inactive: -5.82%
CC1CCN(C(C)C(=O)Nc2cc(S(=O)(=O)N3CCCCC3)ccc2Cl)CC1 (stereo not drawn) | inconclusive: 29.1 µM [inhibitor, single point] | 
CC(=O)Nc1nc2ccccc2n1Cc1ccc(C)cc1 | inconclusive: 25.9 µM [inhibitor, single point] | 
O=C(Nc1ccc(S(=O)(=O)NC2=NCCCCC2)cc1)c1ccc(C(F)(F)F)cc1 | inconclusive: 29.1 µM [inhibitor, single point] | 
CNC(=O)c1c(NC(=O)c2ccco2)sc2c1CCC2 | inconclusive: 29.1 µM [inhibitor, single point] | 
CCOC(=O)C1=C(C)OC(N)=C(C#N)C1c1cc(F)ccc1F (stereo not drawn) | inconclusive: 23.1 µM [inhibitor, single point] | 
COc1ccccc1NS(=O)(=O)c1cccc(NC(=O)C2CC2)c1 | inconclusive: 25.9 µM [inhibitor, single point] | 
O=C(CNC1CCCCC1)Nc1ccc([N+](=O)[O-])cc1C(=O)Nc1ccccc1F | inconclusive: 18.4 µM [inhibitor, single point] | 
CCN1CCCC1CN(Cc1cc2ccc(C)cc2[nH]c1=O)C(=S)Nc1cccc(OC)c1 (stereo not drawn) | inconclusive: 20.6 µM [inhibitor, single point] | 
CCOc1ccc(Cc2nccc3cc(OCC)c(OCC)cc23)cc1OCC | active: 7.18 µM and active: 5.8 µM | 
